# From PubChem BioAssay AID686979 (National Center for Advancing Translational Sciences (NCATS), 2013)
# Where “and” joins values, the source holds several entries; their conditions need not be identical. Identical values can stand only once. About 50,000 (12%) of roughly 420,000 compounds were called active. This list was built around the results that the source calls inconclusive (neither active nor inactive); the mix of calls is not that of the screen. The call rests on the fitted dose curve; in most records, active means well fitted inhibition curve with a large enough effect; inconclusive means small, poorly fitted or top-dose-only effect; inactive means flat fitted curve, though single readings scatter. No potency is given beside an inconclusive call; the fits are too rough.
# Test: qHTS for Inhibitors of human tyrosyl-DNA phosphodiesterase 1 (TDP1): qHTS in cells in presence of CPT; further: nearly all actives have a fitted effect of over 55% in size
# Conditions: chicken DT40 Tdp1-/-;hTDP1 cells + 20 nM CPT, ATP luminescence, 48 h; activity change, negative = growth inhibition: at 46.2 µM (top of the series)
# Outline: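 Chicken DT40 Tdp1-/- cells complemented with human TDP1, 400 cells/well, exposed to compounds plus 20 nM camptothecin for at least 48 h at 37 C; viability read as ATP content by CellTiter-Glo luminescence.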
# On the % scale 0 is the no-effect control and ±100 the full control effect; potency means the concentration at half of the fitted maximal effect; tags describe the fitted curve by direction and shape.
SMILES,Potency,"activity change, negative = growth inhibition"
O=c1c2ccccc2sn1-c1cc(S(=O)(=O)N2CCOCC2)ccc1N1CCOCC1,active: 6.51 µM and active: 4.47 µM,
Cn1c(-c2ccsc2)c(-c2cccs2)c2cc(-c3ccc4cc[nH]c4c3)ccc21,"inconclusive [inhibitor, single point]",
COc1cc(C2c3cc4c(cc3OC(N3CCCCC3)C2C)OCO4)cc(OC)c1O (stereo not given),"inconclusive [inhibitor, single point]",
Clc1ccc(CSc2nnnn2-c2ccc3c(c2)OCO3)c(Cl)c1,"inconclusive [inhibitor, single point]",
CCOC(=O)C1CCCN(C(=O)c2cccc(S(=O)(=O)N3CCOCC3)c2)C1 (stereo not given),,inactive: -26.6%
COc1ccc(C(=O)NC(=S)NNC(=O)c2ccc(NC(=O)C(C)C)cc2)cc1,active: 16.4 µM,
CCN(Cc1ccccc1)Cc1ccc(OCc2ccccc2)c(OC)c1,,inactive: -22.4%
CC(NC(=O)c1ccc2c(c1)CCN2S(=O)(=O)c1ccccc1)c1ccccc1 (stereo not given),"inconclusive [inhibitor, single point]",
Fc1ccccc1Cc1cn2cc(-c3ccc(Cl)cc3)nc2s1,"inconclusive [inhibitor, partial curve]",
Cc1ccc(S(=O)(=O)Nc2ccc3c(c2)ncn3C(C)(C)C)cc1,"inconclusive [inhibitor, partial curve, poor fit]",
CCOC(=O)c1cc2[nH]c3ccccc3c2[n+](-c2ccc([N+](=O)[O-])cc2)c1N,active: 11.6 µM,
CC1(C)Cc2c(sc(NC(=O)COc3ccc(Cl)cc3)c2C#N)C(C)(C)N1,"inconclusive [inhibitor, single point]",
CC1(C)CC2(CCO1)OC(=O)CC2C(=O)NCc1ccccc1 (stereo not given),,inactive: -3.99%
Cn1cccc1C(NC(=O)c1ccccc1)C(Cl)(Cl)Cl (stereo not given),"inconclusive [inhibitor, single point]",
CCC(=O)c1ccccc1OCCCCn1cncn1,,inactive: 0.653%
CC1CCN(C(=O)c2ccc([N+](=O)[O-])o2)CC1,"inconclusive [inhibitor, single point]",
CC1(C)Cc2c(c(-c3ccco3)nc3sc4c(NCCO)ncnc4c23)CO1,active: 23.1 µM,
COC(CNC(=O)c1ccc2c(c1)ncn2C1CCCCCC1)OC,,inactive: -0.382%
CCN(CC(=O)Nc1ccc(OC)c(Cl)c1)CC(=O)NC(C)C,,inactive: 0.739%
CCOc1nnc(C)c2c(C)n(-c3ccc(Cl)cc3)nc12,"inconclusive [inhibitor, partial curve]",
CS(=O)(=O)c1sc(C(=O)NC(=O)Nc2cccc(C(F)(F)F)c2)c2c1C=CCC2,,inconclusive: -32.2% [inhibitor]
O=C(N/C(=C\c1ccccc1)C(=O)N1CCOCC1)c1ccccc1Br,,inactive: 4.17%
Cc1cccc(-n2nc(C(=O)c3ccco3)cc(-c3nc4ccccc4[nH]3)c2=N)c1,active: 16.4 µM,

SMILES,Potency,"activity change, negative = growth inhibition"
COc1ccc(CCN2C(=O)c3ccccc3C2c2nnnn2C(C)C)cc1OC (stereo not given),"inconclusive [inhibitor, single point]",
Cc1c(C#N)c2ccccc2n1CC(=O)N1CCCc2ccccc21,"inconclusive [inhibitor, single point]",
COc1ccc(NC(=O)COC(=O)Cn2nnc3ccccc32)cc1,"inconclusive [inhibitor, single point]",
CC(C)c1ccc(NC(=O)NC2CCCCC2)cc1,"inconclusive [inhibitor, partial curve, poor fit]",
CCS(=O)(=O)NC(C)C(c1cccs1)N1CCN(c2ccc(OC)cc2)CC1 (stereo not given),active: 20.6 µM,
CC(=O)n1nc(-c2ccc(Cl)cc2)nc1NCc1ccco1,"inconclusive [inhibitor, single point]",
CCOC(=O)C1CCC(CN(Cc2ccccc2)S(=O)(=O)c2ccc(Br)cc2)CC1 (stereo not given),"inconclusive [inhibitor, single point]",
CCN(CC)S(=O)(=O)c1ccc(C(=O)NNc2nc(-c3ccccc3)c3cc(Br)ccc3n2)cc1,"inconclusive [inhibitor, single point]",
CN1C2CCC1CC(N(CCc1ccccc1)C(=O)c1ccc(Cl)cc1)C2 (stereo not given),"inconclusive [inhibitor, single point]",
O=C(CSc1ncnc2c1cnn2-c1cccc(Cl)c1)NCC1CCCO1 (stereo not given),"inconclusive [inhibitor, partial curve]",
COc1ccc(/C=C/c2nc(C#N)c(NCc3ccc(F)cc3)o2)cc1OC,"inconclusive [inhibitor, single point]",
Cc1nn(-c2ccccc2)nc1C(=O)Nc1ccc2[nH]ncc2c1,,inactive: -26%
CCc1noc(C)c1C(=O)N1CCN(c2ccc([N+](=O)[O-])cc2)CC1,"inconclusive [inhibitor, single point]",
O=C(CSc1nnc(-c2ccccc2)n1-c1ccccc1)NCc1ccco1,"inconclusive [inhibitor, single point]",
Cc1cccc(/C=C(\C#N)c2nc3ccccc3c(=O)[nH]2)c1,"inconclusive [inhibitor, single point]",
Cc1ccc([C@H]2C(C(=O)O)=CCN2S(=O)(=O)c2ccc(C)cc2)cc1,,inactive: 0.152%
CSc1cccc(NC(=O)CCCNC(=O)c2ccc(Cl)cc2)c1,,inactive: -3.86%
COc1ccc(C(=O)N(CCc2ccccc2)Cc2ccccc2)cc1S(=O)(=O)N1CCOCC1,active: 23.1 µM,
Cc1ccc(CS(=O)(=O)CCC(=O)NCc2ccccn2)cc1,,inactive: -12.4%
CCCCN(C)C(=O)C1CCCN(S(=O)(=O)c2ccc3c(c2)oc(=O)n3C)C1 (stereo not given),"inconclusive [inhibitor, full curve, poor fit]",
NC(N)=Nc1nc(CCN2C(=O)c3ccccc3C2=O)cs1,"inconclusive [inhibitor, single point]",
COc1ccc(-c2noc(N3CCC(C(=O)NCc4ccccc4Cl)CC3)n2)cc1,active: 16.4 µM,
